# Data from PubChem BioAssay (Tox21).
# “And” between values parts separate entries of the source, which are not always exact repeats. Equal values may be shown once. The shares of active, inactive and inconclusive entries below differ from those in the screen. For some assays here: Potencies of inconclusive entries are doubtful fits and often do not repeat. The source made the active and inactive calls. Unless noted, the call rests on the fitted dose curve; in most records, active means well fitted curve in the direction sought with a large enough effect in the repeat runs; inconclusive means weak or mixed curves; inactive means no such curve, though single readings can be large; an effect the other way counts as inactive or inconclusive.
# What was measured:
# [1] = qHTS assay for identifying genotoxic compounds that show differential cytotoxicity against isogenic chicken DT40 cell lines with known DNA damage response pathways - wild type cell line (AID 743012); conditions: DT40 wild type chicken cells viability, CellTiter-Glo, 40 h; activity change, negative = cytotoxicity: at 68.4 µM (top of the series) unless noted; further: nearly all actives have a fitted effect of over 60% in size; further: potency means the concentration at half of the fitted maximal effect
# How it was run: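 Luminescent ATP viability signal (CellTiter-Glo, 30 min RT) recorded after wild type DT40 cells were incubated with compounds for 40 h at 37 C/5% CO2.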
# [2] = qHTS assay to identify small molecule antagonists of the estrogen receptor alpha (ER-alpha) signaling pathway - cell viability counter screen (AID 743074; calls by dose curve;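 further: HEK293 cells carrying ER-alpha-UAS-bla reporter stimulated with 17beta-estradiol; nearly all actives have a fitted effect of over 45% in size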; further: potency means the concentration at half of the fitted maximal effect)
# [3] = qHTS assay to identify small molecule antagonists of the peroxisome proliferator-activated receptor gamma (PPARg) signaling pathway - cell viability counter screen (AID 743194); conditions: PPARg-bla HEK293H viability, CellTiter-Glo luminescence, 17 h; Potency: co-treated with 50 nM rosiglitazone unless noted; activity change, negative = cytotoxicity: at 62.6 µM (top of the series), co-treated with 50 nM rosiglitazone unless noted; further: nearly all actives have a fitted effect of over 55% in size; further: potency means the concentration at half of the fitted maximal effect; on activity change, negative = cytotoxicity: on the % scale 0 is the no-effect control and ±100 the full control effect
# How it was run: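 Cytotoxicity counter screen in PPARg-bla HEK293H cells, same wells as reporter assay. Compounds plus 50 nM rosiglitazone (final) for 17 h at 37 C, then viability read by CellTiter-Glo luminescence.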
# [4] = molecular target: Peroxisome proliferator-activated receptor delta (Homo sapiens) (UniProt Q03181); test: qHTS assay to identify small molecule antagonists of the peroxisome proliferator-activated receptor delta (PPARd) signaling pathway (AID 743215; active means well fitted inhibition curve with a large enough effect in the signal ratio in the repeat runs, not every such curve was filed as active; inconclusive means weak or mixed curves, or effect the other way; inactive means no such curve, though single readings can be large or run the other way; the % refers to the signal ratio;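 further: cells stimulated with agonist L165041 at 300 nM final during compound exposure; on the % scale 0 is the no-effect control and ±100 the full control effect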); conditions: HEK293H PPARd-UAS-bla, beta-lactamase FRET ratio, antagonist, 17 h; ratio activity, negative = inhibition: at 62 µM (top of the series) unless noted
# Chain of UniProt Q03181 (Q03181 whole entry, looked up): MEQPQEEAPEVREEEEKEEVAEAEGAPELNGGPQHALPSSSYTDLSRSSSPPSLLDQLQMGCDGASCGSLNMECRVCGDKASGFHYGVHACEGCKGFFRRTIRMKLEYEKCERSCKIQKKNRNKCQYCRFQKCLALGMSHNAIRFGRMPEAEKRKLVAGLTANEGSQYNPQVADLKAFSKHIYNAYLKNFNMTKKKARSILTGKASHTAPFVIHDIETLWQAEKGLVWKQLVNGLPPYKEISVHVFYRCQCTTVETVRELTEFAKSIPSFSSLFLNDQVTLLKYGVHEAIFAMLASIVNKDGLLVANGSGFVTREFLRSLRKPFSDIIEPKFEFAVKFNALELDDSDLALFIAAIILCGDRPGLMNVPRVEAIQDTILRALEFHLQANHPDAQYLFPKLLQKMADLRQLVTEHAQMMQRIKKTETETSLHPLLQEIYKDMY
# How it was run: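 Plated HEK293H PPARd-bla cells rested 5 h at 37 C and 5% CO2. Compound, then agonist L165041 at 300 nM final, was added; 17 h at 37 C followed. Substrate loading, 2 h room temperature, fluorescence measured.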
# [5] = molecular target: Estrogen receptor beta (Homo sapiens) (UniProt Q92731); test: qHTS assay to identify small molecule agonists of the estrogen receptor beta (ER-beta) signaling pathway (AID 1259377; active means well fitted activation curve with a large enough effect in the signal ratio in the repeat runs, not every such curve was filed as active; inconclusive means weak or mixed curves, or effect the other way; the % refers to the signal ratio; further: potency means the concentration at half of the fitted maximal effect; on activation: on the % scale 0 is the no-effect control and ±100 the full control effect); conditions: ER-beta-UAS-bla HEK293T, beta-lactamase FRET ratio, 16 h; activation: at 92.4 µM (top of the series) unless noted
# Chain of UniProt Q92731 (Q92731 whole entry, looked up): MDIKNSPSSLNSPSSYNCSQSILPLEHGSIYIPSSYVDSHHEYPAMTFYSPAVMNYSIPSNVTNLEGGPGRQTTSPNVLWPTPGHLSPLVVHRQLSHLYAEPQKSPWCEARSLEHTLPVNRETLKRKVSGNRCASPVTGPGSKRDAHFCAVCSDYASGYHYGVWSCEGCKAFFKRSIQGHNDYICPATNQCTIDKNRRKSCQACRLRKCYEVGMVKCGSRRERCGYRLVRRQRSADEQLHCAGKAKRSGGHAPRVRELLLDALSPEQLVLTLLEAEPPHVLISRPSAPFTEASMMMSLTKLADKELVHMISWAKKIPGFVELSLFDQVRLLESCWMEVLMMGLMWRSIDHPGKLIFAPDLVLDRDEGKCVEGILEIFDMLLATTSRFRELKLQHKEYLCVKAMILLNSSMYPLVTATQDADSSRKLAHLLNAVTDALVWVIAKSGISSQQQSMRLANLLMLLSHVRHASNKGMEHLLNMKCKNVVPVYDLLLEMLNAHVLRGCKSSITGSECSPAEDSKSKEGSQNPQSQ
# How it was run: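 ER-beta-UAS-bla HEK293T cells in medium with 2% charcoal-stripped FBS were exposed to compounds for 16 h at 37C. Beta-lactamase reporter activity was read as fluorescence after 2 h with LiveBLAzer B/G FRET substrate at room temperature.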
# [6] = qHTS assay to identify small molecule agonists of the estrogen receptor beta (ER-beta) signaling pathway - cell viability counter screen (AID 1259380); further: nearly all actives have a fitted effect of over 30% in size; further: potency means the concentration at half of the fitted maximal effect
# How it was run: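 Steps: plate ER-beta-UAS-bla HEK293T cells, rest 6 hr; add compounds in DMSO; incubate 16 hr at 37C, 5% CO2; add FRET substrate 2 hr; add CellTiter-Glo, wait 30 min at room temperature; read luminescence.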
# [7] = molecular target: Progesterone receptor (Homo sapiens) (UniProt P06401); test: qHTS assay to identify small molecule agonists of the progesterone receptor (PR) signaling pathway (AID 1346784; calls by dose curve; further: nearly all actives have a fitted effect of over 30% in size; further: potency means the concentration at half of the fitted maximal effect); conditions: PR-UAS-bla HEK293T, beta-lactamase FRET ratio, 16 h; activation: at 92.4 µM (top of the series) unless noted
# Chain of UniProt P06401 (P06401 whole entry, looked up): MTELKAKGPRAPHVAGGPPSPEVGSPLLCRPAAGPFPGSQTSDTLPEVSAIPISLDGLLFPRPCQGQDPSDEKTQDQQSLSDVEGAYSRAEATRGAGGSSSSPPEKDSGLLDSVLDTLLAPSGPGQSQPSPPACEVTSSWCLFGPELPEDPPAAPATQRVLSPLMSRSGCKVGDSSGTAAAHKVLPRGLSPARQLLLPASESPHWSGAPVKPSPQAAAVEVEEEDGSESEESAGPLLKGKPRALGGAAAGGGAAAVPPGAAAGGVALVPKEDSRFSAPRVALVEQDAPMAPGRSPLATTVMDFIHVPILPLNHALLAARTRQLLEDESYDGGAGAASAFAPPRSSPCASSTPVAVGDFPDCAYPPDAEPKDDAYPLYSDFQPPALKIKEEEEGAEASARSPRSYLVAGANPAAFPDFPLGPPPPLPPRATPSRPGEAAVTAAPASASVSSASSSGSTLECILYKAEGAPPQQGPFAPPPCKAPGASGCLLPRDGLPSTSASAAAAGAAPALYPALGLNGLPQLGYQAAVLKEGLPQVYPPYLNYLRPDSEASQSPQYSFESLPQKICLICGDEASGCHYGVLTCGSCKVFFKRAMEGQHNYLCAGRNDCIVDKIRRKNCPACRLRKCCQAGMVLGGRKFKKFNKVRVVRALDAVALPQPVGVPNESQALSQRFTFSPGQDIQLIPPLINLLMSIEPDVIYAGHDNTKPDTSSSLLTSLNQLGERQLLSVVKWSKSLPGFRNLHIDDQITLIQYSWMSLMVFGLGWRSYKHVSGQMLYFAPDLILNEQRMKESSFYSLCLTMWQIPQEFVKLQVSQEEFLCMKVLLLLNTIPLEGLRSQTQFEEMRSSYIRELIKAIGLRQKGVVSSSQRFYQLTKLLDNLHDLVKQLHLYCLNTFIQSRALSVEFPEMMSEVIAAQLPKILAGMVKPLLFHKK
# How it was run: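 PR-UAS-bla HEK 293T cells (beta-lactamase reporter under UAS) in 2% charcoal-stripped FBS, dosed with 23 nL compound after 6 hr, incubated 16hr at 37C. LiveBLAzer B/G FRET substrate added, fluorescence read after 2 hours.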
# [8] = molecular target: Peroxisome proliferator-activated receptor gamma (Homo sapiens) (UniProt P37231); test: qHTS assay to identify small molecule agonists of the peroxisome proliferator-activated receptor gamma (PPARg) signaling pathway (AID 743094; active means well fitted activation curve with a large enough effect in the signal ratio in the repeat runs, not every such curve was filed as active; inconclusive means weak or mixed curves, or effect the other way; inactive means no such curve, though single readings can be large or run the other way; the % refers to the signal ratio; further: on the % scale 0 is the no-effect control and ±100 the full control effect); conditions: HEK293H PPARg-UAS-bla, beta-lactamase FRET ratio, 17 h; activation: at 57 µM (top of the series) unless noted
# Chain of UniProt P37231 (P37231 whole entry, looked up): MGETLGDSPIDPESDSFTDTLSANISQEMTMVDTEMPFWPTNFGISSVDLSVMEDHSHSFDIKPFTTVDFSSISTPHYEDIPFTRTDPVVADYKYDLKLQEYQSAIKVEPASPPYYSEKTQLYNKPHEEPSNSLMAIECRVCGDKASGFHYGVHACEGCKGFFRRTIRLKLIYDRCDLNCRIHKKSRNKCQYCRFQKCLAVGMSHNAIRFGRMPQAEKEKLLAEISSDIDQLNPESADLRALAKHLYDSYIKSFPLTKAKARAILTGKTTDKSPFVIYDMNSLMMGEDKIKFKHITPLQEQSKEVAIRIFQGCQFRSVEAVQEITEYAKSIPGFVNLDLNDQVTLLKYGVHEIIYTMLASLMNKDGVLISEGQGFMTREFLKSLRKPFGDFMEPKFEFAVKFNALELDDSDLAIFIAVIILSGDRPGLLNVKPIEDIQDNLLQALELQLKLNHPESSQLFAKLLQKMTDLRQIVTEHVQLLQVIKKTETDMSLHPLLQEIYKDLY
# How it was run: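 Reporter activation was scored by fluorescence of cleaved LiveBLAzer B/G substrate (1 h, room temperature) in PPARg-bla HEK293H cells previously treated 17 h at 37C with DMSO-dissolved compounds.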
# [9] = qHTS assay to identify small molecule agonists of H2AX (AID 1224845; active means well fitted activation curve with a large enough effect in the signal ratio in the repeat runs, not every such curve was filed as active; inconclusive means weak or mixed curves; the % refers to the signal ratio; further: potency means the concentration at half of the fitted maximal effect); conditions: CHO-K1 phospho-H2AX Ser139 HTRF, 3 h; activation (H2AX phosphorylation): at 154 µM (top of the series) unless noted
# How it was run: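 Wild-type CHO-K1 cells, plated overnight, exposed 3hr at 37C to 15 concentrations (0.76% DMSO final). Lysed, then HTRF anti-pH2AX (S139) cryptate and anti-H2AX-d2 antibodies, 24 hr room temperature; 665/620 nm emission read.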
# [10] = qHTS assay to identify small molecule agonists of the peroxisome proliferator-activated receptor delta (PPARd) signaling pathway - cell viability counter screen (AID 743211); conditions: PPARd-bla HEK293H viability, CellTiter-Glo luminescence, 17 h; activity change, negative = cytotoxicity: at 62.6 µM (top of the series); further: potency means the concentration at half of the fitted maximal effect; nearly all actives have a fitted effect of over 55% in size
# How it was run: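 PPARd-bla HEK293H cells (3000/well) were pre-incubated 5 h at 37 C, then exposed to compound for 17 h at 37 C. After 2 h with LiveBLAzer substrate, CellTiter-Glo was added to the same wells; luminescence read after 30 min at room temperature.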
# [11] = qHTS RealTime-Glo MT Cell Viability Assay in HEK293 cells - 32 hour (AID 1224868); further: nearly all actives have a fitted effect of over 50% in size; further: potency means the concentration at half of the fitted maximal effect
# How it was run: (§1)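 Tox21 10K qHTS, HEK293, 600 cells/well, RealTime-Glo reagent co-dispensed with cells; 5 h preincubation, compound by pintool, 37 C, luminescence at 0–40 h.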
# [12] = qHTS assay to identify small molecule antagonists of the retinoic acid receptor (RAR) signaling pathway (AID 1159552; further: nearly all actives have a fitted effect of over 50% in size; further: potency means the concentration at half of the fitted maximal effect)
# How it was run: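 Retinol signaling pathway inhibitors screened in C3RL4 RARE-luciferase reporter cells seeded overnight at 37 C, then compounds added with 1 uM (final) retinol as pathway substrate. After 6 hr at 37 C, luciferase luminescence read after 30 min at room temperature.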
# [13] = qHTS RealTime-Glo MT Cell Viability Assay in HEK293 cells - 24 hour (AID 1224886); further: nearly all actives have a fitted effect of over 50% in size; further: potency means the concentration at half of the fitted maximal effect
# How it was run: as §1
# [14] = Caspase-3/7 induction in CHO-K1 cells by small molecules, qHTS cell viability counter screen (AID 1346979); further: nearly all actives have a fitted effect of over 35% in size; further: potency means the concentration at half of the fitted maximal effect
# How it was run: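 Wild-type CHO-K1 cells (1,500/well) treated with compound after 5 h plating; after 16 h at 37C, viability read as CellTiter-Fluor fluorescence following 1 h reagent incubation, in the same wells as the caspase read.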
# [15] = qHTS assay to identify small molecule agonists of H2AX - cell viability counter screen (AID 1224847; calls by dose curve; further: top concentration of the series differs between compounds; on the % scale 0 is the no-effect control and ±100 the full control effect; nearly all actives have a fitted effect of over 30% in size)
# How it was run: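 CHO-K1 cells plated overnight at 37C, then exposed 3 h at 37C to compounds at 15 concentrations (0.76% DMSO final). Viability by CellTiter-Glo luminescence after 30 min at room temperature.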
# [16] = A CellTox Green Cytotoxicity Assay to monitor cytotoxicity in HEK293 cells - 40 hour (AID 1224871); further: potency means the concentration at half of the fitted maximal effect; nearly all actives have a fitted effect of over 45% in size
# How it was run: (§2)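 Dead-cell fluorescence measured kinetically: asymmetric cyanine dye, HEK293, 600 cells/well, 5 h settle, 23 nL cpd/DMSO, 37 C, reads 0–40 h every 8 h.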
# [17] = A CellTox Green Cytotoxicity Assay to monitor cytotoxicity in HEK293 cells - 32 hour (AID 1224881); further: nearly all actives have a fitted effect of over 40% in size; further: potency means the concentration at half of the fitted maximal effect
# How it was run: as §2
# [18] = qHTS assay for identifying genotoxic compounds that show differential cytotoxicity against isogenic chicken DT40 cell lines with known DNA damage response pathways - Rad54/Ku70 mutant cell line (AID 743015); conditions: DT40 Rad54/Ku70 mutant viability, CellTiter-Glo, 40 h; activity change, negative = cytotoxicity: at 66.8 µM (top of the series); further: nearly all actives have a fitted effect of over 60% in size; further: potency means the concentration at half of the fitted maximal effect
# [19] = qHTS RealTime-Glo MT Cell Viability Assay in HEK293 cells - 8 hour (AID 1224887); further: nearly all actives have a fitted effect of over 50% in size; further: potency means the concentration at half of the fitted maximal effect
# How it was run: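 600 HEK293 cells per well, dispensed already mixed with RealTime-Glo MT reagents. Compound dosing came 5 h later. The same wells were read for luminescence at 0, 8, 16, 24, 32 and 40 h of exposure at 37 C.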
# Tags describe the fitted curve by direction and shape or compound fluorescence and quenching.
structure (smiles),measurement,setting,value
C[C@]1(O)CC[C@H]2[C@@H]3CCC4=CC(=O)CC[C@]4(C)[C@@]3(F)[C@@H](O)C[C@@]21C,Potency,[1],"inconclusive: 23.7 µM [cytotoxic, partial curve, poor fit] and inconclusive: 30.8 µM [cytotoxic, partial curve, poor fit]"
same,Potency,[2],"inconclusive: 16.9 µM [rising, partial curve]"
same,Potency,[3],"inconclusive: 4.39 µM [cytotoxic, full curve, poor fit] [setting not given]"
same,"ratio activity, negative = inhibition",[4],inconclusive: 5.67% [at 80.4 µM]
same,activation,[5],inconclusive: 8.76%
same,Potency,[6],"inconclusive: 77.4 µM [cytotoxic, partial curve, poor fit]"
same,Potency,[7],"inconclusive: 0.869 µM [falling, full curve]"
N#Cc1cccnc1,activation,[8],inconclusive: -5.07%
same,"activity change, negative = cytotoxicity",[3],inconclusive: 37.1%
CN1CCN(C(=O)O[C@H]2c3nccnc3C(=O)N2c2ccc(Cl)cn2)CC1,Potency,[1],inactive
CCOC(=O)CC(SP(=O)(OC)OC)C(=O)OCC (stereo not given),Potency,[9],"inconclusive: 38.1 µM [rising, full curve]"
CCC(CC)(CNC(=O)CCCO)c1cccc(OC)c1,Potency,[10],"inconclusive: 18.8 µM [rising, single point]"
same,"ratio activity, negative = inhibition",[4],inconclusive: -10.2%
same,Potency,[6],inactive
same,Potency,[7],inactive
C(CCOCC1CO1)COCC1CO1 (stereo not given),Potency,[2],"inconclusive: 54.1 µM [rising, partial curve, poor fit]"
same,Potency,[3],"inconclusive: 4.3 µM [cytotoxic, full curve, poor fit]"
same,Potency,[11],"inconclusive: 34.2 µM [cytotoxic, partial curve]"
Cc1ccc2cc(C)ccc2c1,Potency,[2],inactive
same,Potency,[12],inactive
same,Potency,[6],inactive
same,Potency,[7],inactive
CC(C)(N)Cc1ccccc1Cl,Potency,[12],inactive
same,Potency,[6],"inconclusive: 13.3 µM [cytotoxic, single point]"
N#Cc1ccc(O)cc1,Potency,[13],inactive
same,Potency,[6],inactive
same,Potency,[14],inactive
COc1ccc(CCN2CCC(Nc3nc4ccccc4n3Cc3ccc(F)cc3)CC2)cc1,Potency,[12],active: 1.25 µM
O=C1Nc2ccc(Cl)cc2C(c2ccccc2)=NC1O (stereo not given),Potency,[2],"inconclusive: 55.4 µM [rising, single point]"
same,Potency,[12],"inconclusive: 61.6 µM [inhibitor, single point]"
same,Potency,[15],inactive
same,Potency,[11],"inconclusive: 39.2 µM [cytotoxic, partial curve]"
same,Potency,[13],"inconclusive: 39.2 µM [cytotoxic, partial curve]"
same,Potency,[6],"inconclusive: 65.1 µM [cytotoxic, single point]"
CCCOC(=O)Cc1ccc(OCC(=O)N(CC)CC)c(OC)c1,Potency,[1],inconclusive: 29.8 µM [cytotoxic]
same,Potency,[12],inactive
C=C(C)C(=O)OCC(CC)CCCC (stereo not given),Potency,[2],"inconclusive: 31.5 µM [cytotoxic, partial curve, poor fit]"
same,Potency,[3],"inconclusive: 15.5 µM [rising, partial curve, poor fit]"
same,activation (H2AX phosphorylation),[9],inconclusive: 6.29%
same,Potency,[16],"inconclusive: 56 µM [activator, single point]"
same,Potency,[17],"inconclusive: 56 µM [activator, single point]"
same,Potency,[6],"inconclusive: 62.3 µM [cytotoxic, single point]"
CCOP(=S)(OCC)SCCSCC,Potency,[18],"inconclusive: 29.1 µM [cytotoxic, single point]"
same,activation,[5],inconclusive: 10.3%
CC1CC(=O)O1 (stereo not given),Potency,[17],inactive
CCOP(=S)(OCC)SCCl,Potency,[18],inactive
same,Potency,[2],"inconclusive: 6.16 µM [rising, full curve, poor fit]"
same,Potency,[8],inactive
same,activation (H2AX phosphorylation),[9],inconclusive: 7.83%
same,Potency,[16],"inconclusive: 54.9 µM [activator, single point]"
same,Potency,[17],"inconclusive: 54.9 µM [activator, single point]"
same,Potency,[13],inactive
same,Potency,[14],"inconclusive: 77 µM [cytotoxic, single point]"
CC(=O)CN(CC(C)=O)N=O,Potency,[11],inactive
same,Potency,[19],inactive
same,Potency,[5],inactive
same,Potency,[7],inactive
CNN,Potency,[18],inactive
same,Potency,[10],"inconclusive: 24.8 µM [cytotoxic, single point]"
same,Potency,[19],inactive
CCC(C)(C)c1cc(-n2nc3ccccc3n2)c(O)c(C(C)(C)CC)c1,Potency,[12],"inconclusive: 78.1 µM [inhibitor, single point]"
same,Potency,[11],active: 22.2 µM
same,Potency,[13],active: 24.9 µM
same,Potency,[19],"inconclusive: 35.2 µM [cytotoxic, partial curve]"
same,Potency,[6],"inconclusive: 31.1 µM [cytotoxic, partial curve]"
same,Potency,[7],"inconclusive: 62.1 µM [activator, partial curve, poor fit]"
Cc1c(N)cccc1[N+](=O)[O-],Potency,[12],inactive
CN(C)C(=O)Cl,Potency,[4],inactive
same,Potency,[12],inactive
same,Potency,[11],"inconclusive: 2.19 µM [rising, partial curve, poor fit]"
same,Potency,[19],"inconclusive: 5.49 µM [rising, partial curve, poor fit]"
CC(C)[N+](C)(CCC(C(N)=O)(c1ccccc1)c1ccccc1)C(C)C,Potency,[12],inactive
same,Potency,[5],inactive
Cc1cccc(C)c1[N+](=O)[O-],Potency,[12],inactive
CCC(=O)O[C@@H]1C=C2CCC3C(CCC4(C)C3CC[C@@H]4OC(=O)CC)C2CC1 (stereo not given in full),Potency,[16],"inconclusive: 26.8 µM [activator, single point]"
same,Potency,[17],"inconclusive: 26.8 µM [activator, single point]"
same,Potency,[19],"inconclusive: 30.1 µM [cytotoxic, partial curve, poor fit]"
same,Potency,[5],active: 0.298 µM
same,Potency,[6],"inconclusive: 0.211 µM [rising, partial curve, poor fit]"
same,Potency,[7],"inconclusive: 0.668 µM [falling, full curve]"
